Laboratory results taken from PubChem BioAssay AID504466 (National Center for Advancing Translational Sciences (NCATS), 2011).
Hit rate of the full screen: of about 330,000 compounds, about 4,200 (1.3%) were called active. The shares of active, inactive and inconclusive entries below differ from those in the screen. The call rests on the fitted dose curve; in most records, active means well fitted activation curve with a large enough effect; inconclusive means small, poorly fitted or top-dose-only effect; inactive means no such curve, though single readings can be large or run the other way. Potencies of inconclusive entries are doubtful fits and often do not repeat.

experiment: qHTS screen for small molecules that induce genotoxicity in human embryonic kidney (HEK293T) cells expressing luciferase-tagged ELG1; conditions: HEK293T ELG1-luciferase reporter, luminescence, 16 h; series mostly up to 46 µM; activity change, positive = activation: at the top concentration; further: nearly all actives have a fitted effect of over 60% in size; on activity change, positive = activation: % of control where 0% means no effect
In short: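 ELG1-luciferase HEK293T cells, 2,000/well; compound pinned in; 16 hr, 37 °C, 5% CO2; ONE-Glo, 30 min RT; luminescence on CCD imager.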
Potency means the concentration at half of the fitted maximal effect; tags describe the fitted curve by direction and shape.

Row | SMILES | Potency | activity change, positive = activation
1 | O=C(c1cnsn1)N1CCC(CO)(Cc2cccc(F)c2)CC1 | inconclusive: 18.3 µM [activator, partial curve] | 
2 | Cn1nnc(NC(=O)c2ccc(C(C)(C)C)cc2)n1 | inconclusive: 6.51 µM [activator, partial curve, poor fit] | 
3 | COc1cccc(C(=O)Nc2ccc3[nH]ncc3c2)c1OC | inconclusive: 20.6 µM [activator, partial curve, poor fit] | 
4 | N#Cc1ccccc1NC(=O)c1ccc2c(c1)OCO2 | inconclusive: 13 µM [activator, partial curve, poor fit] | 
5 | Cn1c(-c2ccc(F)cc2)cnc1SCC(=O)Nc1ccccc1N1CCOCC1 | active: 1.84 µM | 
6 | COc1cc(/C=N/NC(=O)c2cccs2)ccc1O | active: 20.6 µM | 
7 | Cc1ccc(N/C=C/C(=O)c2ccccc2)cc1C | active: 0.92 µM | 
8 | COCCn1c(C)cc(C(=O)CSc2nc3ccccc3o2)c1C | inconclusive: 4.61 µM [activator, partial curve] | 
9 | Cc1c(C(=O)OCC(C)(C)CN(C)C)oc2ccccc12 | inconclusive: 29.1 µM [activator, single point] | 
10 | Cc1cc(-n2c(C)cc(C(=O)CSc3nnnn3-c3ccccc3)c2C)no1 |  | inactive: -20%
11 | CCn1c(-c2ccccc2)csc1=Nc1ccc(O)cc1 | inconclusive: 6.51 µM [activator, partial curve, poor fit] | 
12 | CCOC(=O)c1ccc(NC(=O)c2nn(C)cc2Br)cc1 | active: 20.6 µM | 
13 | COc1cccc(OCCNc2cc(Cl)ccc2[N+](=O)[O-])c1 | inconclusive: 20.6 µM [activator, single point] | 
14 | O=C(Nc1ccc(Br)cc1)C1Cc2ccccc2O/C1=N\O (centres undefined) | active: 18.3 µM | 
15 | CCOC(=O)c1ccc(NC(=S)Nc2ccccn2)cc1 | active: 14.6 µM | 
16 | Cc1ccc(N2CSC3=C(C#N)C(c4cccs4)CC(=O)N3C2)cc1 (centres undefined) | inconclusive: 32.6 µM [activator, partial curve, poor fit] | 
17 | CN(C)CCn1c2ccccc2c2nc3ccc([N+](=O)[O-])cc3cc21 | inconclusive: 20.6 µM [activator, single point] | 
18 | CC(C(=O)Nc1ccc(C#N)cc1)N(C)CC(=O)N(C)c1c(N)n(Cc2ccccc2)c(=O)[nH]c1=O (centres undefined) |  | inactive: 4.15%
19 | O=C(NN=C1CCCC1)c1n[nH]c2c1CCCC2 | inconclusive: 2.31 µM [activator, full curve] | 
20 | CC(=O)CSc1nc2cc3c(cc2cc1C#N)OCCO3 | inconclusive: 29.1 µM [activator, partial curve, poor fit] | 
21 | CC1Cc2cc(/C=C3/SC(=S)N(C)C3=O)ccc2O1 (centres undefined) | inconclusive: 18.3 µM [activator, single point] | 
22 | Cc1cccc(N=C2NN=C(c3ccc4c(c3)OCCO4)CS2)c1 | inconclusive: 1.84 µM [activator, full curve] | 
23 | COc1ccccc1N(C)S(=O)(=O)c1ccc(Cl)c(C(=O)NCC2(N(C)C)CCCCC2)c1 | inconclusive: 16.4 µM [activator, partial curve, poor fit] | 
24 | CCOC(=O)c1c(C)[nH]c(C(=O)NNC(=O)c2ccccc2)c1C | inconclusive: 5.8 µM [activator, partial curve] | 
25 | Cc1ccc(S(=O)(=O)N2CCCCC2)cc1NC(=O)COC(=O)C1=COCCO1 |  | inactive: -1.39%

Row | SMILES | Potency | activity change, positive = activation
26 | Cc1ccc(S(=O)(=O)Nc2cccc(C(=O)NCc3ccccn3)c2)cc1F |  | inactive: 2.03%
27 | COc1ccc(/C=C2/N=C3CCCCCN3C2=O)cc1OC | inconclusive: 20.6 µM [activator, partial curve, poor fit] | 
28 | Clc1ccc2c(N/N=C/c3cccc(Br)c3)ccnc2c1 | inconclusive: 23.1 µM [activator, partial curve, poor fit] | 
29 | CN(C)/C=N/C(=S)Nc1ccc(Cl)c(Cl)c1 | inconclusive: 18.3 µM [activator, partial curve, poor fit] | 
30 | COC(=O)c1cc(S(=O)(=O)N2CCN(c3cccc(Cl)c3)CC2)c[nH]1 | inconclusive: 29.1 µM [activator, partial curve, poor fit] | 
31 | CCOC(=O)c1cnn(-c2ncnc3c2oc2ccccc23)c1N | active: 1.64 µM | 
32 | CC(=O)Nc1ccccc1OCC(=O)c1cc(C)n(Cc2cccs2)c1C | active: 10.3 µM | 
33 | Cc1ccc(C(CC(=O)O)Nc2nc(N3CCOCC3)nc(N3CCOCC3)n2)cc1 (centres undefined) |  | inactive: 3.32%
34 | C/C=C\C(=O)Nc1cccc(C2=NOC3(C2)C[C@@H](C(N)=O)N(C(=O)COc2ccc(Cl)cc2)C3)c1 (some centres undefined) |  | inactive: 1.78%
35 | Cc1ccnc(NC(=O)CN2C(=O)NC(C)(c3ccc4ccccc4c3)C2=O)c1 (centres undefined) | inconclusive: 1.83 µM [activator, full curve, poor fit] | 
36 | O=c1c(Cl)c(O)c2cccc3c4ccccc4n1c23 |  | inactive: 3.71%
37 | COc1cccc(NC(=O)Cn2cnc3c(oc4nc5c(cc43)CCCC5)c2=O)c1 | inconclusive: 11.6 µM [activator, partial curve] | 
38 | O=C(N/N=C1\CCCc2ccccc21)c1ccccc1Cl | inconclusive: 14.6 µM [activator, single point] | 
39 | CCCOc1cccc(C(=O)Nc2nnn(CCC)n2)c1 | inconclusive: 14.6 µM [activator, partial curve, poor fit] | 
40 | COc1ccccc1C(=O)NC(=O)COC(=O)Cn1cnc2c1c(=O)n(C)c(=O)n2C |  | inactive: 0.0733%
41 | Cn1cc(/C=N/Nc2ccccc2)c2ccccc21 | inconclusive: 18.3 µM [activator, single point] | 
42 | NC(=O)c1ccc(NC(=O)Cc2cccs2)cc1 | inconclusive: 29.1 µM [activator, single point] | 
43 | COc1cc(C(=O)NCc2ccc(OCCN(C)C)cc2)cc(OC)c1OC | active: 23.1 µM | 
44 | O=C(Nc1ccc(Cl)c(Cl)c1)OCc1cncs1 | inconclusive: 16.4 µM [activator, single point] | 
45 | Cc1ccc2cc3cc(C(=O)NC4CCCCC4)oc3nc2c1 |  | inactive: -3.78%
46 | Cc1ccc(C)c(C(=O)CCC(=O)NNC(=O)c2cccs2)c1 |  | inactive: -0.479%
47 | CCC(=O)Nc1ccc(C(=O)Nc2cccc(C)n2)cc1 | inconclusive: 9.2 µM [activator, partial curve, poor fit] | 
48 | O=C1c2ccccc2NC(c2ccc(-c3cccc(Cl)c3)o2)N1O (centres undefined) | inconclusive: 11.2 µM [activator, partial curve, poor fit] | 
49 | Cc1ccc(S(=O)(=O)N[C@@H](Cc2ccccc2)C(=O)CCl)cc1 |  | inactive: -0.258%
50 | CN(C)c1ccccc1C(=O)c1ccccc1N(C)C | active: 20.6 µM | 

Row | SMILES | Potency | activity change, positive = activation
51 | COc1ccc(CNC(=O)Nc2cccc(C)c2)cc1 | inconclusive: 14.6 µM [activator, partial curve] | 
52 | COc1ccc(NC(=O)c2csc(Cc3ccccc3)n2)cc1 | inconclusive: 23.1 µM [activator, partial curve] | 
53 | CCN(CC)c1ccc2cc(C(N)=O)c(=N)oc2c1 | inconclusive: 16.4 µM [activator, partial curve, poor fit] | 
54 | O=C(Cn1nnc(-c2ccccc2)n1)OCc1ccccc1 |  | inactive: -1.13%
55 | CCC(=O)N1CCc2nc(-c3ccccc3)sc2C1 | inconclusive: 16.4 µM [activator, partial curve] | 
56 | O=C(COC(=O)[C@@H]1CC(O)CN1S(=O)(=O)c1ccc2c(c1)OCCO2)Nc1ccccc1F (some centres undefined) |  | inactive: 0.454%
57 | COc1ccc(N/C=C/C(=O)c2ccc(Cl)cc2)cc1 | active: 3.66 µM | 
58 | CC(NC(=O)c1ccc2ccccc2n1)c1ccc(Br)cc1 (centres undefined) |  | inactive: -0.249%
59 | Cc1ccc(CC(=O)Nc2ccccc2-c2ccccc2)cc1C |  | inactive: 0.718%
60 | CO/N=C/C(C#N)=C/c1ccc(OC)cc1 | inconclusive: 13 µM [activator, partial curve, poor fit] | 
61 | Cc1nc2nc(-c3ccc(Cl)cc3)[nH]n2c(=O)c1C | inconclusive: 5.17 µM [activator, partial curve, poor fit] | 
62 | COC(=O)c1ccc(COc2ccc(/C=N/N3CCN(C)CC3)cc2)cc1 | inconclusive: 8.2 µM [activator, partial curve, poor fit] | 
63 | COc1cc(/C=C2/NC(=O)N(Cc3ccccc3F)C2=O)ccc1O | inconclusive: 23.1 µM [activator, partial curve, poor fit] | 
64 | O=C(NCC1CCCO1)c1ccccc1NS(=O)(=O)c1ccc(F)cc1 (centres undefined) |  | inactive: 1.4%
65 | CCOC(=O)c1csc(NC(=O)c2cc3ccccc3o2)n1 | inconclusive: 14.6 µM [activator, partial curve, poor fit] | 
66 | CC(C)c1ccc(NC(=O)CCc2ccccc2)cc1 | inconclusive: 16.4 µM [activator, partial curve, poor fit] | 
67 | COc1ccccc1C(=O)NNC(=O)C(=O)NC(C)(C)C |  | inactive: -16.9%
68 | Cc1nnc(NC(=O)c2ccc3c(c2)C(=O)N(CC2CCCO2)C3=O)s1 (centres undefined) |  | inactive: 6.99%
69 | COc1ccccc1C(=O)COC(=O)c1cccc(-n2cnnn2)c1 |  | inactive: 4.32%
70 | N#Cc1ccc(-c2ccc(F)cc2)nc1Sc1ccc(F)cc1 | inconclusive: 23.1 µM [activator, partial curve, poor fit] | 
71 | O=C(N=C1SC2CS(=O)(=O)CC2N1c1ccccc1)c1cccc([N+](=O)[O-])c1 (centres undefined) |  | inactive: -3.95%
72 | COc1ccc2[nH]cc(C(=O)CN3CCC(C)CC3)c2c1 | inconclusive: 14.6 µM [activator, partial curve] | 
73 | Cc1ccc(-n2cc(-c3ccccc3)c3c(N4CCOCC4)ncnc32)cc1 |  | inactive: -6.82%
74 | Cc1ccc(C(C(=O)NCC2CCCO2)N(C(=O)c2snc(C(N)=O)c2N)c2ccc(C)c(C)c2)o1 (centres undefined) |  | inactive: 7.38%
